# Some of the results follow.
# B1: CC1G-11630 (Coprinopsis cinerea), A8P462 (protein)
# chain: MTTEAKIKLKAVVYWELVFDYDNSSNTGEITQSYTVKISQTSTRSTFASEVSTTTIDTLTKNNQEVDVGASYGAISANVSASWEHSEEVNNMLEKTTQTSTEDTYTVETEETRSYTIGPGGMLSLFQKHFSGPGMHVAFDVFTTDLELAKERTEIDIDVDVEAIRFVREIRVVYTDIMSEAPGDHVREINGKNPDINYGFNGKFVWLVPEQTRKTAQALTNVEFVSQAESDDRYWDLAAGAGGSNRYLIPVYDTNNKDKIYELALWRSDSYITHDKVKAAGWSGTTGDINSGRGGTYLNLVWKTRHAY
# What was measured:
# Assay in all cases: glycan array binding signal (z-score within array); higher = stronger binding
# Settings in all cases: glycan notation: IUPAC condensed, linker removed
# Neu5Ac(a2-3)Gal = biological target: Neu5Ac(a2-3)Gal
# Outline: (§1)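 Glycan array binding is given as a within-array Z-score, which can be read as non-binding when negative. The arrays, 3228 of them, came from the Consortium for Functional Glycomics database and were retained only where the protein sequence was available. Z-scores were averaged across arrays of the same protein sequence at different concentrations or buffers and across linkers.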
# [1] = biological target: Neu5Ac(a2-3)Gal(b1-3)GalNAc
# Outline: as §1
# [2] = biological target: Neu5Ac(a2-3)Gal(b1-3)GalNAc(b1-3)Gal(a1-4)Gal(b1-4)Glc
# Outline: as §1
# [3] = biological target: Neu5Ac(a2-3)Gal(b1-3)GalNAc(b1-4)[Neu5Ac(a2-3)]Gal(b1-4)Glc
# Outline: as §1
# [4] = biological target: Neu5Ac(a2-3)Gal(b1-3)GalNAc(b1-4)[Neu5Ac(a2-8)Neu5Ac(a2-3)]Gal(b1-4)Glc
# Outline: as §1
# [5] = biological target: Neu5Ac(a2-3)Gal(b1-3)GalNAc6S
# Outline: as §1
# [6] = biological target: Neu5Ac(a2-3)Gal(b1-3)GlcNAc
# Outline: as §1
# [7] = biological target: Neu5Ac(a2-3)Gal(b1-3)GlcNAc(b1-2)Man
# Outline: as §1
# [8] = biological target: Neu5Ac(a2-3)Gal(b1-3)GlcNAc(b1-2)Man(a1-3)[GlcNAc(b1-4)][Neu5Ac(a2-3)Gal(b1-3)GlcNAc(b1-2)Man(a1-6)]Man(b1-4)GlcNAc(b1-4)GlcNAc
# Outline: as §1
# [9] = biological target: Neu5Ac(a2-3)Gal(b1-3)GlcNAc(b1-2)Man(a1-3)[Neu5Ac(a2-3)Gal(b1-3)GlcNAc(b1-2)Man(a1-6)]Man(b1-4)GlcNAc(b1-4)GlcNAc
# Outline: as §1
# [10] = biological target: Neu5Ac(a2-3)Gal(b1-3)GlcNAc(b1-3)Gal(b1-3)GlcNAc
# Outline: as §1
# [11] = biological target: Neu5Ac(a2-3)Gal(b1-3)GlcNAc(b1-3)Gal(b1-4)GlcNAc
# Outline: as §1
# [12] = biological target: Neu5Ac(a2-3)Gal(b1-3)GlcNAc(b1-3)GalNAc
# Outline: as §1
# [13] = biological target: Neu5Ac(a2-3)Gal(b1-3)GlcNAc(b1-4)Gal(b1-4)Glc
# Outline: as §1
# [14] = biological target: Neu5Ac(a2-3)Gal(b1-3)GlcNAc(b1-6)GalNAc
# Outline: as §1
# [15] = biological target: Neu5Ac(a2-3)Gal(b1-3)GlcNAc6S
# Outline: as §1
# [16] = biological target: Neu5Ac(a2-3)Gal(b1-3)[Fuc(a1-4)]GlcNAc
# Outline: as §1
# [17] = biological target: Neu5Ac(a2-3)Gal(b1-3)[Fuc(a1-4)]GlcNAc(b1-3)Gal(b1-3)[Fuc(a1-4)]GlcNAc
# Outline: as §1
# [18] = biological target: Neu5Ac(a2-3)Gal(b1-3)[Fuc(a1-4)]GlcNAc(b1-3)Gal(b1-4)[Fuc(a1-3)]GlcNAc
# Outline: as §1
# [19] = biological target: Neu5Ac(a2-3)Gal(b1-3)[GlcNAc(b1-6)]GalNAc
# Outline: as §1
# [20] = biological target: Neu5Ac(a2-3)Gal(b1-3)[Neu5Ac(a2-6)]GalNAc
# Outline: as §1
# [21] = biological target: Neu5Ac(a2-3)Gal(b1-3)[Neu5Ac(a2-6)]GlcNAc(b1-3)[Fuc(a1-3)[Gal(b1-4)]GlcNAc(b1-6)]Gal(b1-4)Glc
# Outline: as §1
# [22] = biological target: Neu5Ac(a2-3)Gal(b1-3)]Neu5Ac(a2-3)Gal(b1-4)]GlcNAc
# Outline: as §1
# Neu5Ac(a2-3)Gal(b1-4)Glc = biological target: Neu5Ac(a2-3)Gal(b1-4)Glc
# Outline: as §1
# [23] = biological target: Neu5Ac(a2-3)Gal(b1-4)GlcNAc
# Outline: as §1
# [24] = biological target: Neu5Ac(a2-3)Gal(b1-4)GlcNAc(b1-2)Man
# Outline: as §1
# [25] = biological target: Neu5Ac(a2-3)Gal(b1-4)GlcNAc(b1-2)Man(a1-3)[GlcNAc(b1-4)][Neu5Ac(a2-3)Gal(b1-4)GlcNAc(b1-2)Man(a1-6)]Man(b1-4)GlcNAc(b1-4)GlcNAc
# Outline: as §1
# [26] = biological target: Neu5Ac(a2-3)Gal(b1-4)GlcNAc(b1-2)Man(a1-3)[Neu5Ac(a2-3)Gal(b1-4)GlcNAc(b1-2)Man(a1-6)]Man(b1-4)GlcNAc(b1-4)GlcNAc
# Outline: as §1
# [27] = biological target: Neu5Ac(a2-3)Gal(b1-4)GlcNAc(b1-2)Man(a1-3)[Neu5Ac(a2-3)Gal(b1-4)GlcNAc(b1-2)Man(a1-6)]Man(b1-4)GlcNAc(b1-4)[Fuc(a1-6)]GlcNAc
# Outline: as §1
# [28] = biological target: Neu5Ac(a2-3)Gal(b1-4)GlcNAc(b1-2)Man(a1-3)[Neu5Ac(a2-6)Gal(b1-4)GlcNAc(b1-2)Man(a1-6)]Man(b1-4)GlcNAc(b1-4)GlcNAc
# Outline: as §1
# [29] = biological target: Neu5Ac(a2-3)Gal(b1-4)GlcNAc(b1-2)[Neu5Ac(a2-3)Gal(b1-4)GlcNAc(b1-4)]Man(a1-3)[GlcNAc(b1-4)][Neu5Ac(a2-3)Gal(b1-4)GlcNAc(b1-2)[Neu5Ac(a2-3)Gal(b1-4)GlcNAc(b1-6)]Man(a1-6)]Man(b1-4)GlcNAc(b1-4)GlcNAc
# Outline: as §1
# [30] = biological target: Neu5Ac(a2-3)Gal(b1-4)GlcNAc(b1-2)[Neu5Ac(a2-3)Gal(b1-4)GlcNAc(b1-4)]Man(a1-3)[GlcNAc(b1-4)][Neu5Ac(a2-3)Gal(b1-4)GlcNAc(b1-4)Man(a1-6)]Man(b1-4)GlcNAc(b1-4)GlcNAc
# Outline: as §1
# [31] = biological target: Neu5Ac(a2-3)Gal(b1-4)GlcNAc(b1-2)[Neu5Ac(a2-3)Gal(b1-4)GlcNAc(b1-6)]Man(a1-6)[Neu5Ac(a2-3)Gal(b1-4)GlcNAc(b1-2)Man(a1-3)]Man(b1-4)GlcNAc(b1-4)GlcNAc
# Outline: as §1
# [32] = biological target: Neu5Ac(a2-3)Gal(b1-4)GlcNAc(b1-2)[Neu5Ac(a2-3)Gal(b1-4)GlcNAc(b1-6)]Man(a1-6)[Neu5Ac(a2-3)Gal(b1-4)GlcNAc(b1-2)Man(a1-3)][GlcNAc(b1-4)]Man(b1-4)GlcNAc(b1-4)GlcNAc
# Outline: as §1
# [33] = biological target: Neu5Ac(a2-3)Gal(b1-4)GlcNAc(b1-3)Gal
# Outline: as §1
# [34] = biological target: Neu5Ac(a2-3)Gal(b1-4)GlcNAc(b1-3)Gal(b1-3)GlcNAc
# Outline: as §1
# [35] = biological target: Neu5Ac(a2-3)Gal(b1-4)GlcNAc(b1-3)Gal(b1-4)GlcNAc
# Outline: as §1
binder,measurement,setting,value
B1,glycan array binding signal (z-score),Neu5Ac(a2-3)Gal,-0.049
same,glycan array binding signal (z-score),[1],-0.519
same,glycan array binding signal (z-score),[2],-0.43
same,glycan array binding signal (z-score),[3],-0.253
same,glycan array binding signal (z-score),[4],-0.126
same,glycan array binding signal (z-score),[5],-0.156
same,glycan array binding signal (z-score),[6],-0.105
same,glycan array binding signal (z-score),[7],1.26
same,glycan array binding signal (z-score),[8],0.293
same,glycan array binding signal (z-score),[9],1.27
same,glycan array binding signal (z-score),[10],-0.397
same,glycan array binding signal (z-score),[11],-0.231
same,glycan array binding signal (z-score),[12],-0.329
same,glycan array binding signal (z-score),[13],-0.026
same,glycan array binding signal (z-score),[14],-0.25
same,glycan array binding signal (z-score),[15],0.714
same,glycan array binding signal (z-score),[16],-0.138
same,glycan array binding signal (z-score),[17],-0.022
same,glycan array binding signal (z-score),[18],-0.024
same,glycan array binding signal (z-score),[19],0.149
same,glycan array binding signal (z-score),[20],-0.04
same,glycan array binding signal (z-score),[21],-0.796
same,glycan array binding signal (z-score),[22],0.28
same,glycan array binding signal (z-score),Neu5Ac(a2-3)Gal(b1-4)Glc,-0.12
same,glycan array binding signal (z-score),[23],-0.323
same,glycan array binding signal (z-score),[24],1.79
same,glycan array binding signal (z-score),[25],-0.123
same,glycan array binding signal (z-score),[26],-0.556
same,glycan array binding signal (z-score),[27],-0.466
same,glycan array binding signal (z-score),[28],-0.711
same,glycan array binding signal (z-score),[29],-0.403
same,glycan array binding signal (z-score),[30],-0.701
same,glycan array binding signal (z-score),[31],-0.549
same,glycan array binding signal (z-score),[32],-0.379
same,glycan array binding signal (z-score),[33],-0.788
same,glycan array binding signal (z-score),[34],-0.449
same,glycan array binding signal (z-score),[35],-0.528

# Reference: the supplement of paper PMC8728848
